Data from PubChem BioAssay AID624296 (National Center for Advancing Translational Sciences (NCATS), 2012).
Among all 350,000 compounds or so, about 9,900 (2.8%) were called active. Inconclusive means that the source gave no clear call. Such entries were picked first, then a sample of the others. The call rests on the fitted dose curve; in most records, active means well fitted activation curve with a large enough effect; inconclusive means small, poorly fitted or top-dose-only effect; inactive means no such curve, though single readings can be large or run the other way. Potencies of inconclusive entries are left out as doubtful fits.

Assay: A quantitative high throughput screen for small molecules that induce DNA re-replication in MCF 10a normal breast cells. Further: nearly all actives have a fitted effect of over 50% in size. On activity, positive = re-replication: % of control where 0% means no effect.
Settings: MCF 10A DNA re-replication, Hoechst nuclear intensity, 48 h; activity, positive = re-replication: at 46.1 µM (top of the series)
Potency means the concentration at half of the fitted maximal effect; tags describe the fitted curve by direction and shape.

Question: Which Potency does the source give for `CCc1nnc(NC(=O)c2sc3nc4c(cc3c2N)CCCCC4)s1` here?
Answer: active: 16.4 µM

Question: For `COc1ccc(Br)cc1CN1CCN(Cc2c[nH]c3ccccc23)CC1`, which Potency is on record?
Answer: inconclusive [activator, single point]

Question: With `CCCOc1ccc(C2C3=C(CCCC3=O)N(CC(=O)O)C3=C2C(=O)CCC3)cc1OCC` as the compound, how does the “activity, positive = re-replication” value read?
Answer: inactive: -13.7%

Question: For `Cc1ccc(Cl)cc1NC(=O)C1CCCN1S(=O)(=O)c1ccc(-c2ccc(=O)[nH]n2)s1` (stereo not given), which Potency is on record?
Answer: inconclusive [activator, single point]

Question: For `O=C(c1ccc2c(c1)OCO2)C1CCCN(Cc2ccccc2OC(F)F)C1` (stereo not given), which Potency is on record?
Answer: inconclusive [activator, partial curve, poor fit]

Question: With `O=C(Nc1ccccc1)c1ccc(CN2CCc3ccccc3C2)cc1` as the compound, how does the Potency read?
Answer: inconclusive [activator, single point]

Question: With `Cc1cc(C[n+]2ccccc2)c2nsnc2c1` as the compound, how does the Potency read?
Answer: inconclusive [activator, single point]

Question: With `N#CC1=C(N)C(C#N)(C#N)[C@H](c2ccncc2)[C@H]2CC3(CC=C12)OCCO3` as the compound, how does the “activity, positive = re-replication” value read?
Answer: inactive: -3.78%

Question: Which Potency does the source give for `CC12CCC(C(=O)Nc3cccc(Cl)c3)(C(Br)C1=O)C2(C)C` (stereo not given) here?
Answer: inconclusive [activator, single point]

Question: With `N#C/C(=C\c1cn(CC(=O)N2CCCC2)c2ccccc12)C(=O)NCc1ccc2c(c1)OCO2` as the compound, how does the Potency read?
Answer: inconclusive [activator, single point]

Question: With `S=C1NCN(C2CCCCC2)CN1CCc1ccccc1` as the compound, how does the “activity, positive = re-replication” value read?
Answer: inactive: 8.57%

Question: With `COc1ccc(CN2CCS(=O)(=O)CC2)cc1OC` as the compound, how does the Potency read?
Answer: inconclusive [activator, single point]

Question: Which “activity, positive = re-replication” value does the source give for `COC(=O)C1=C(C)NC(C)=C(C(=O)OC(C)C)[C@H]1c1cccc2nonc12` here?
Answer: inactive: -3.33% [at 20.6 µM]

Question: With `O=C(Nc1ccc(Cn2ccnc2)cc1)c1cccc(C(F)(F)F)c1` as the compound, how does the Potency read?
Answer: inconclusive [activator, full curve, poor fit]

Question: With `C=C1CCc2c([nH]c3ccc(OCC(C)C)cc23)C1=O` as the compound, how does the Potency read?
Answer: active: 4.61 µM

Question: Which Potency does the source give for `Cn1c(SCc2c(F)cccc2Cl)nnc1-c1cccs1` here?
Answer: active: 6.51 µM

Question: Which Potency does the source give for `COc1ccc(C2=Nn3c([n+](C)c4ccccc43)SC2)cc1` here?
Answer: inconclusive [activator, full curve, poor fit]

Question: With `Cc1ccc(-c2nnc3sc(C4COc5ccccc5O4)nn23)cc1` (stereo not given) as the compound, how does the “activity, positive = re-replication” value read?
Answer: inactive: 4.51%

Question: With `O=C(NNC(=O)c1cc(Cl)ccc1O)c1ccc(NS(=O)(=O)c2cccs2)cc1` as the compound, how does the Potency read?
Answer: inconclusive [activator, partial curve, poor fit]

Question: For `O=S(=O)(NCC(O)c1ccccc1)c1ccc(-c2ccccn2)s1` (stereo not given), which Potency is on record?
Answer: inconclusive [activator, partial curve, poor fit]

Question: Which “activity, positive = re-replication” value does the source give for `CN1CCC(OC(=O)C(Oc2ccc(Cl)cc2)Oc2ccc(Cl)cc2)CC1` here?
Answer: inactive: -1.53%

Question: Which Potency does the source give for `COCc1cc(N2CCOCC2)nc(-c2ccccc2)n1` here?
Answer: inconclusive [activator, partial curve, poor fit]

Question: For `COc1ccc(C2CC(c3ccccc3)=NN2c2ccc(C(N)=O)cc2)cc1` (stereo not given), which Potency is on record?
Answer: inconclusive [activator, full curve, poor fit]

Question: For `Clc1ccc(/C=N/NC2=Nc3cccc4cccc2c34)cc1`, which Potency is on record?
Answer: inconclusive [activator, single point]

Question: Which Potency does the source give for `COc1cc(NC(=O)C(Cc2ccccc2)n2cccc2)cc(OC)c1` (stereo not given) here?
Answer: inconclusive [activator, partial curve, poor fit]

Question: For `O=C1CCC(c2ccc3c(c2)CCC3)=NN1`, which “activity, positive = re-replication” value is on record?
Answer: inactive: -12.9%

Question: Which Potency does the source give for `c1ccc2c(CSCc3nc4ccccc4[nH]3)cccc2c1` here?
Answer: inconclusive [activator, single point]

Question: Which Potency does the source give for `CCc1nc(N2CCCC(C)C2)c2oc3ccccc3c2n1` (stereo not given) here?
Answer: inconclusive [activator, single point]

Question: With `Cc1ccc(S(=O)(=O)CCc2nnc(NC(=O)CCl)s2)cc1C` as the compound, how does the Potency read?
Answer: inconclusive [activator, partial curve, poor fit]

Question: With `CCOC(=O)N1CCN(C(=O)c2ccc3c(c2)N(Cc2ccc(C)cc2)CCS3)CC1` as the compound, how does the Potency read?
Answer: inconclusive [activator, single point]

Question: For `O=C(Nc1ccccc1F)NC1CCN(Cc2nnnn2Cc2ccc(F)cc2)CC1`, which “activity, positive = re-replication” value is on record?
Answer: inactive: 4.08%

Question: For `N#C/C(=C\c1ccc([N+](=O)[O-])o1)c1nc2ccccc2[nH]1`, which Potency is on record?
Answer: active: 3.66 µM

Question: With `O=C(N/N=C/c1ccccc1O)c1cc(=O)[nH]c2ccccc12` as the compound, how does the Potency read?
Answer: inconclusive [activator, partial curve, poor fit]

Question: For `Cc1cc(C)n2nc(C(=O)N/N=C/c3c4ccccc4cc4ccccc34)nc2n1`, which Potency is on record?
Answer: active: 8.2 µM

Question: Which Potency does the source give for `COc1ccc(NC(=O)c2cnc(SC)nc2)cc1` here?
Answer: inconclusive [activator, single point]

Question: Which Potency does the source give for `C=CCSc1nnc(NC(=O)c2cccc(S(=O)(=O)N(C)c3ccccc3)c2)s1` here?
Answer: inconclusive [activator, partial curve]

Question: With `CCO[C@@H]1OC(C(=O)NCc2ccccc2)=C[C@H](C)[C@H]1CCCO` as the compound, how does the activity, positive = re-replication read?
Answer: inconclusive: -19.5% [activator]

Question: Which Potency does the source give for `CN(C)c1oc(-c2ccccc2Cl)nc1P(=O)(c1ccccc1)c1ccccc1` here?
Answer: active: 18.4 µM

Question: Which Potency does the source give for `O=c1c(Cl)c(N/N=C/c2ccc(Br)cc2)cnn1-c1ccccc1` here?
Answer: active: 7.08 µM

Question: Which “activity, positive = re-replication” value does the source give for `Fc1ccc2cc(-c3ccccc3F)ncc2c1` here?
Answer: inactive: -4.35%

Question: For `c1cc2cc(-c3c(-c4ccc5c(c4)OCO5)noc3-c3ccsc3)ccc2[nH]1`, which Potency is on record?
Answer: inconclusive [activator, full curve]

Question: Which Potency does the source give for `COc1ccc(C(=O)NCC(c2cccnc2)N2CCN(c3ccc(F)cc3)CC2)cc1OC` (stereo not given) here?
Answer: inconclusive [activator, partial curve, poor fit]

Question: With `CCNc1nc(N)nc(-c2cc(Cl)ccc2O)n1` as the compound, how does the Potency read?
Answer: inconclusive [activator, single point]

Question: With `CCC(C(=O)C(C)C(O)C(C)CCc1ccc(C)c(O)c1C(=O)O)C1OC(CC)(C2CC[C@@](O)(CC)C(C)O2)CC1C` (stereo not given in full) as the compound, how does the Potency read?
Answer: inconclusive [activator, partial curve]

Question: Which Potency does the source give for `CCCc1[nH]nc2c1C(c1ccc(Br)s1)C(C#N)=C(N)O2` (stereo not given) here?
Answer: inconclusive [activator, single point]

Question: Which Potency does the source give for `COc1ccc2nc(N/C(N)=N/S(C)(=O)=O)nc(C)c2c1` here?
Answer: inconclusive [activator, partial curve, poor fit]

Question: Which “activity, positive = re-replication” value does the source give for `Cc1cccc(NC(=O)Cn2nc([N+](=O)[O-])c(Br)c2C)n1` here?
Answer: inactive: 3.18%

Question: Which Potency does the source give for `CC(=O)NC12CC3CC(C1)CC(C(=O)OCC(=O)c1cc(C)n(C)c1C)(C3)C2` here?
Answer: inconclusive [activator, single point]

Question: With `O=C(/C=C/c1cc(Br)ccc1O)c1ccco1` as the compound, how does the Potency read?
Answer: inconclusive [activator, single point]

Question: Which Potency does the source give for `CSc1ccc(C(=O)C2CCCN(Cc3cccn3-c3cccnc3)C2)cc1` (stereo not given) here?
Answer: inconclusive [activator, partial curve, poor fit]

Question: With `Cc1ccccc1-n1c2nc(=O)n(C)c(=O)c-2cc2ccccc21` as the compound, how does the Potency read?
Answer: active: 20.6 µM

Question: For `CC1CCCN(S(=O)(=O)c2ccc(NC(=O)CN3CCCCC3)cc2)C1` (stereo not given), which Potency is on record?
Answer: inconclusive [activator, partial curve, poor fit]

Question: For `O=C(CCc1ccc(S(=O)(=O)NCCc2ccccc2)cc1)Nc1ccc2c(c1)OCCO2`, which Potency is on record?
Answer: inconclusive [activator, single point]

Question: For `CCn1c2ccccc2c2nc3ccccc3nc21`, which Potency is on record?
Answer: active: 13 µM

Question: Which Potency does the source give for `COC(=O)c1cc(COc2ccc3oc(C)c(C(=O)OC(C)C)c3c2)c(C)o1` here?
Answer: inconclusive [activator, partial curve, poor fit]

Question: Which Potency does the source give for `Cc1nnc(NC(=O)CSc2nnc(CNC(=O)c3ccccc3F)n2C(C)C)s1` here?
Answer: inconclusive [activator, partial curve, poor fit]

Question: Which Potency does the source give for `Cc1ccc(-c2ccc(/C=N/NC(N)=S)o2)cc1` here?
Answer: inconclusive [activator, partial curve, poor fit]

Question: For `COCCn1nnnc1C(c1ccc(Cl)cc1)N1CCSCC1` (stereo not given), which Potency is on record?
Answer: inconclusive [activator, single point]

Question: For `CCOC(=O)C1CCN(C(=O)Nc2cccc(Cl)c2)CC1`, which “activity, positive = re-replication” value is on record?
Answer: inactive: 0.0618%

Question: For `O=C(COC(=O)CCC(=O)c1ccc(F)cc1)NCc1ccccc1Cl`, which “activity, positive = re-replication” value is on record?
Answer: inactive: 0.293%

Question: For `COC(=O)C1=CN(Cc2cccs2)C=C(C(=O)OC)C1c1cccc(O)c1`, which Potency is on record?
Answer: inconclusive [activator, partial curve, poor fit]

Question: For `CN(C(=O)c1ccc(N2CCOCC2)c([N+](=O)[O-])c1)C1CCCCC1`, which “activity, positive = re-replication” value is on record?
Answer: inactive: -3.22%

Question: With `COc1ccc(S(=O)(=O)NC2CCCCC2)cc1F` as the compound, how does the “activity, positive = re-replication” value read?
Answer: inactive: -0.235%

Question: With `CCOC(=O)c1c(NC(=O)c2cc3n(n2)C(C(F)(F)F)CC(c2ccccc2)N3)sc(C)c1C` (stereo not given) as the compound, how does the “activity, positive = re-replication” value read?
Answer: inactive: 22.3%

Question: For `N#C/C(=C\c1ccc(-c2ccc(F)cc2)o1)C(=O)Nc1nc(-c2cccs2)cs1`, which Potency is on record?
Answer: inconclusive [activator, single point]

Question: With `Fc1ccc2c(c1)C1OCCCC1C(c1ccccc1)N2` (stereo not given) as the compound, how does the Potency read?
Answer: active: 6.51 µM

Question: With `Cc1ccc2nc(NC(=O)Cn3cc4c(n3)CCCCC4)sc2c1` as the compound, how does the Potency read?
Answer: inconclusive [activator, partial curve]

Question: Which “activity, positive = re-replication” value does the source give for `O=C(ONC1=NCCCCC1)c1ccc([N+](=O)[O-])cc1` here?
Answer: inactive: -3.28%

Question: With `Nc1c2c(nc3sc4c(c13)CCCCC4)CCCCC2` as the compound, how does the Potency read?
Answer: inconclusive [activator, full curve, poor fit]

Question: For `CCC1CCCCN1C(=S)NC(=O)c1cc(Br)ccc1Cl` (stereo not given), which “activity, positive = re-replication” value is on record?
Answer: inactive: 0.491%
